Data: US20260284014A1, “3,5-DIAMINOTRIAZOLE DERIVATIVES AND USES THEREOF FOR TREATING OCULAR DISEASES” (CENTRE NATIONAL DE LA RECHERCHE SCIENTIFIQUE, priority 2023, published 2026)
The name of at least one read-out is uncertain.

Tested on: CXCL1 mRNA
Assay: CXCL1 mRNA level by qPCR
Assay type: cell-based
Settings: 2.5 μM compound for 48 h

SMILES: Nc1nc(Nc2ccccn2)nn1Cc1ccc(Cl)cc1 [MCK280, 1-(4-chlorobenzyl)-N^3-(pyridin-2-yl)-1H-1,2,4-triazole-3,5-diamine]
- D. CXCL1 mRNA inhibition ARPE-19 cells: 0 (A score of 0 means that the compound inhibited CXCL1 mRNA by less than 50% (non-significant inhibition))

SMILES: Nc1nc(Nc2ccccc2)n(Cc2ccccc2)n1 [MCK248, 1-benzyl-N^5-phenyl-1H-1,2,4-triazole-3,5-diamine]
- D. CXCL1 mRNA inhibition ARPE-19 cells: 0 (A score of 0 means that the compound inhibited CXCL1 mRNA by less than 50% (non-significant inhibition))

SMILES: Nc1nc(Nc2ccccc2)nn1Cc1cccc(C(F)(F)F)c1 [MCK273, N^3-phenyl-1-(3-(trifluoromethyl)benzyl)-1H-1,2,4-triazole-3,5-diamine]
- D. CXCL1 mRNA inhibition ARPE-19 cells: 0 (A score of 0 means that the compound inhibited CXCL1 mRNA by less than 50% (non-significant inhibition))

SMILES: Nc1nc(Nc2ccccc2)n(CCc2ccccc2)n1 [MCK300, 1-phenethyl-N^5-phenyl-1H-1,2,4-triazole-3,5-diamine]
- D. CXCL1 mRNA inhibition ARPE-19 cells: 0 (A score of 0 means that the compound inhibited CXCL1 mRNA by less than 50% (non-significant inhibition))

SMILES: Nc1nc(Nc2ccccc2)nn1Cc1cccc(Br)c1 [MCK264, 1-(3-bromobenzyl)-N^3-phenyl-1H-1,2,4-triazole-3,5-diamine]
- D. CXCL1 mRNA inhibition ARPE-19 cells: 1 (A score of 1 means that the compound inhibited CXCL1 mRNA by at least 50% (significant inhibition))

SMILES: Nc1nc(Nc2ccccc2)nn1Cc1cc(F)cc(F)c1 [MCK274, 1-(3,5-difluorobenzyl)-N^3-phenyl-1H-1,2,4-triazole-3,5-diamine]
- D. CXCL1 mRNA inhibition ARPE-19 cells: 0 (A score of 0 means that the compound inhibited CXCL1 mRNA by less than 50% (non-significant inhibition))

SMILES: CC(C)c1ccc(Cn2nc(N)nc2Nc2ccccc2)cc1 [MCK262, 1-(4-isopropylbenzyl)-N^5-phenyl-1H-1,2,4-triazole-3,5-diamine]
- D. CXCL1 mRNA inhibition ARPE-19 cells: 0 (A score of 0 means that the compound inhibited CXCL1 mRNA by less than 50% (non-significant inhibition))

SMILES: Nc1nc(Nc2ccccc2)n(Cc2cccc(Br)c2)n1 [MCK339, 1-(3-bromobenzyl)-N^5-phenyl-1H-1,2,4-triazole-3,5-diamine]
- D. CXCL1 mRNA inhibition ARPE-19 cells: 1 (A score of 1 means that the compound inhibited CXCL1 mRNA by at least 50% (significant inhibition))

SMILES: Cc1ccc(Cn2nc(Nc3ccccc3)nc2N)cc1 [MCK271, 1-(4-methylbenzyl)-N^3-phenyl-1H-1,2,4-triazole-3,5-diamine]
- D. CXCL1 mRNA inhibition ARPE-19 cells: 0 (A score of 0 means that the compound inhibited CXCL1 mRNA by less than 50% (non-significant inhibition))

SMILES: Nc1nc(Nc2ccccn2)nn1Cc1ccccc1 [MCK253, 1-benzyl-N^3-(pyridin-2-yl)-1H-1,2,4-triazole-3,5-diamine]
- D. CXCL1 mRNA inhibition ARPE-19 cells: 1 (A score of 1 means that the compound inhibited CXCL1 mRNA by at least 50% (significant inhibition))

SMILES: Nc1nc(Nc2ccccn2)nn1CC(=O)c1cccc([N+](=O)[O-])c1 [MCK295, 2-(5-amino-3-(pyridin-2-ylamino)-1H-1,2,4-triazol-1-yl)-1-(3-nitrophenyl)ethan-1-one]
- D. CXCL1 mRNA inhibition ARPE-19 cells: 0 (A score of 0 means that the compound inhibited CXCL1 mRNA by less than 50% (non-significant inhibition))

SMILES: COC(=O)c1ccc(Nc2nc(N)n(Cc3cccc(Br)c3)n2)cc1 [MCK348, methyl-4-((5-amino-1-(3-bromobenzyl)-1H-1,2,4-triazol-3-yl)amino)benzoate]
- D. CXCL1 mRNA inhibition ARPE-19 cells: 1 (A score of 1 means that the compound inhibited CXCL1 mRNA by at least 50% (significant inhibition))

SMILES: Nc1nc(Nc2ccccc2)nn1Cc1c(Cl)cccc1Cl [MCK268, 1-(2,6-dichlorobenzyl)-N^3-phenyl-1H-1,2,4-triazole-3,5-diamine]
- D. CXCL1 mRNA inhibition ARPE-19 cells: 0 (A score of 0 means that the compound inhibited CXCL1 mRNA by less than 50% (non-significant inhibition))

SMILES: Cc1ccc(Cn2nc(Nc3ccccn3)nc2N)cc1 [MCK279, 1-(4-methylbenzyl)-N^3-(pyridin-2-yl)-1H-1,2,4-triazole-3,5-diamine]
- D. CXCL1 mRNA inhibition ARPE-19 cells: 0 (A score of 0 means that the compound inhibited CXCL1 mRNA by less than 50% (non-significant inhibition))

SMILES: COC(=O)c1ccc(Nc2nc(N)nn2Cc2cccc(Br)c2)cc1 [MCK347, methyl-4-((3-amino-1-(3-bromobenzyl)-1H-1,2,4-triazol-5-yl)amino)benzoate]
- D. CXCL1 mRNA inhibition ARPE-19 cells: 1 (A score of 1 means that the compound inhibited CXCL1 mRNA by at least 50% (significant inhibition))

SMILES: Nc1nc(Nc2ccccc2)nn1Cc1ccc(Cl)cc1 [MCK272, 1-(4-chlorobenzyl)-N^3-phenyl-1H-1,2,4-triazole-3,5-diamine]
- D. CXCL1 mRNA inhibition ARPE-19 cells: 1 (A score of 1 means that the compound inhibited CXCL1 mRNA by at least 50% (significant inhibition))

SMILES: Nc1nc(Nc2ccc(Cl)c(Cl)c2)nn1Cc1cccc(Br)c1 [MCK349, 1-(3-bromobenzyl)-N^3-(3,4-dichlorophenyl)-1H-1,2,4-triazole-3,5-diamine]
- D. CXCL1 mRNA inhibition ARPE-19 cells: 1 (A score of 1 means that the compound inhibited CXCL1 mRNA by at least 50% (significant inhibition))

SMILES: Cc1ccccc1Cn1nc(Nc2ccccc2)nc1N [MCK250, 1-(2-methylbenzyl)-N^3-phenyl-1H-1,2,4-triazole-3,5-diamine]
- D. CXCL1 mRNA inhibition ARPE-19 cells: 0 (A score of 0 means that the compound inhibited CXCL1 mRNA by less than 50% (non-significant inhibition))

SMILES: Nc1nc(Nc2ccc(Br)cc2)nn1Cc1cccc(Br)c1 [MCK346, 1-(3-bromobenzyl)-N^3-(4-bromophenyl)-1H-1,2,4-triazole-3,5-diamine]
- D. CXCL1 mRNA inhibition ARPE-19 cells: 0 (A score of 0 means that the compound inhibited CXCL1 mRNA by less than 50% (non-significant inhibition))

SMILES: N#Cc1ccc(Cn2nc(Nc3ccccn3)nc2N)cc1 [MCK281, 4-((5-amino-3-(pyridin-2-ylamino)-1H-1,2,4-triazol-1-yl)methyl)benzonitrile]
- D. CXCL1 mRNA inhibition ARPE-19 cells: 0 (A score of 0 means that the compound inhibited CXCL1 mRNA by less than 50% (non-significant inhibition))

SMILES: Nc1nc(Nc2ccccn2)nn1Cc1cccc(C(F)(F)F)c1 [MCK282, N^3-(pyridin-2-yl)-1-(3-(trifluoromethyl)benzyl)-1H-1,2,4-triazole-3,5-diamine]
- D. CXCL1 mRNA inhibition ARPE-19 cells: 1 (A score of 1 means that the compound inhibited CXCL1 mRNA by at least 50% (significant inhibition))

SMILES: Nc1nc(Nc2ccccn2)nn1Cc1ccc([N+](=O)[O-])cc1 [MCK290, 1-(4-nitrobenzyl)-N^3-(pyridin-2-yl)-1H-1,2,4-triazole-3,5-diamine]
- D. CXCL1 mRNA inhibition ARPE-19 cells: 0 (A score of 0 means that the compound inhibited CXCL1 mRNA by less than 50% (non-significant inhibition))

SMILES: Cc1ccccc1Cn1nc(Nc2ccccn2)nc1N [MCK269, 1-(2-methylbenzyl)-N^3-(pyridin-2-yl)-1H-1,2,4-triazole-3,5-diamine]
- D. CXCL1 mRNA inhibition ARPE-19 cells: 0 (A score of 0 means that the compound inhibited CXCL1 mRNA by less than 50% (non-significant inhibition))

SMILES: Cc1ccc(Nc2nc(N)nn2Cc2cccc(Br)c2)cc1 [MCK341, 1-(3-bromobenzyl)-N^5-(4-methylphenyl)-1H-1,2,4-triazole-3,5-diamine]
- D. CXCL1 mRNA inhibition ARPE-19 cells: 1 (A score of 1 means that the compound inhibited CXCL1 mRNA by at least 50% (significant inhibition))

SMILES: Nc1nc(Nc2ccccc2)nn1Cc1ccccc1[N+](=O)[O-] [MCK297, 1-(2-nitrobenzyl)-N^3-phenyl-1H-1,2,4-triazole-3,5-diamine]
- D. CXCL1 mRNA inhibition ARPE-19 cells: 0 (A score of 0 means that the compound inhibited CXCL1 mRNA by less than 50% (non-significant inhibition))
